Over roughly 33,000 sequences, “E-score (-0.5 to 0.5)” has its median near -0.036; the highest 2% begin near 0.37. Some of the results follow.
Target: T1, Yer064c (UniProt P40041)
T1 sequence: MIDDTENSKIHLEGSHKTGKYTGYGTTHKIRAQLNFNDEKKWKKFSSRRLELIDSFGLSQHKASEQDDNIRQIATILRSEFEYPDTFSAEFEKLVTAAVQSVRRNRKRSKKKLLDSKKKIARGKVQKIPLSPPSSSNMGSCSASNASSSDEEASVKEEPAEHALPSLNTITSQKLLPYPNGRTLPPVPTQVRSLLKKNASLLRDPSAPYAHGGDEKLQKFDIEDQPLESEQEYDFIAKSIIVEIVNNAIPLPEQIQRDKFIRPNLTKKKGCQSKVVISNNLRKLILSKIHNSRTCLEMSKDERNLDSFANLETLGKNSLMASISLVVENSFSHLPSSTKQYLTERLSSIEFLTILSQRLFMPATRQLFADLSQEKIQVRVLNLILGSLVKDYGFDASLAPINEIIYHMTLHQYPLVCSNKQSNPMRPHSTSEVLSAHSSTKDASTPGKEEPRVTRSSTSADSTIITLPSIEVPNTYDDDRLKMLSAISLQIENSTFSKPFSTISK
Test: PBM E-score (8-mer binding enrichment) (E-score (-0.5 to 0.5)); higher = stronger / more preferred TF binding; most listed sequences are background and not binding sites
Details: protein concentration: 200 nM; construct: GST-full length
In short: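 The E-score, a modified Wilcoxon-Mann-Whitney statistic, was computed by the Universal PBM Analysis Suite for every ungapped eight-base word pooled with its reverse complement. Scans behind it were normalised with masliner after bound GST-tagged yeast transcription factors were detected with fluorescent anti-GST. The proteins, at about 100-200 nM, had been applied to universal all-10-mer Agilent arrays made double-stranded by primer extension.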

| Sequence | PBM E-score |
| --- | --- |
| ACGGGTTA | -0.378 |
| ATGCCAAG | -0.0388 |
| TAGTGTGA | 0.231 |
| AGTCGCGA | 0.34 |
| AGCTATCC | -0.396 |
| CTACACGC | -0.0972 |
| ACAAATGG | 0.1 |
| CTGTACTA | 0.159 |
| AAGTTACA | 0.047 |
| CACATGGC | 0.152 |
| GATTAAAA | 0.343 |
| AGAAGACC | -0.209 |
| CGTAACTC | 0.0393 |
| AGGTTCAT | -0.118 |
| CCGCGTGC | -0.134 |
| CATACCAC | -0.142 |
| CGAACGAG | 0.00961 |
| GGCGGCCC | -0.0657 |
| AACATTCA | -0.104 |
| GTCGTTGA | 0.187 |
| CCATTAGG | -0.193 |
| CGAGAGAG | -0.0959 |
| AATACGAC | 0.117 |
| AGCGGCTC | -0.184 |
| AATCTGGA | -0.143 |

| Sequence | PBM E-score |
| --- | --- |
| AATACATC | -0.164 |
| CCGGATAC | -0.0856 |
| GGCCATAA | -0.148 |
| ACTTACTA | 0.143 |
| ATACCCCA | -0.102 |
| CTTTCTAA | 0.115 |
| ACCCCACC | -0.0237 |
| CAAGATCA | 0.088 |
| AAATCCCT | -0.199 |
| ATAATCTG | 0.0759 |
| AGGATCAA | 0.19 |
| CGACTCAG | 0.45 |
| GCAAGGTA | -0.242 |
| CCTATGAA | -0.15 |
| GGATACAA | 0.0348 |
| CAGCCCCA | -0.187 |
| GAGTCTCA | 0.411 |
| AGACATTA | 0.196 |
| TGGGGACA | -0.041 |
| ATTGTGAA | 0.103 |
| CAAAGGCG | -0.0844 |
| CGGACCGA | -0.0816 |
| CCTTAAAC | 0.00355 |
| ACCTCACA | -0.118 |
| CACCGCGG | -0.0147 |

| Sequence | PBM E-score |
| --- | --- |
| ACCTCGAG | -0.135 |
| CATTATTA | 0.0916 |
| CAACCGCC | -0.179 |
| TAGGTTAA | 0.0927 |
| CGGTTCCC | -0.299 |
| GGGACAAA | -0.134 |
| CTCCAGAC | 0.115 |
| CTTATGTC | -0.107 |
| TCCGTTAA | 0.105 |
| AAGCGCTT | 0.034 |
| ATCCGGTG | 0.0615 |
| CATGGCCC | -0.174 |
| CCGTATAC | -0.185 |
| CCGAGACA | 0.00538 |
| ACTATTCA | 0.106 |
| CTATAGCC | -0.0342 |
| CGGTGCAC | -0.278 |
| CCGAAGGA | 0.0542 |
| AGAGCTAC | -0.272 |
| ATTCAGAA | 0.139 |
| CGGCACTC | -0.228 |
| CACGATCC | 0.138 |
| GCACAAGC | -0.0968 |
| AGGGGCCC | -0.315 |
| CTAATTAG | 0.175 |

| Sequence | PBM E-score |
| --- | --- |
| CTGTCCGC | -0.0966 |
| TGATAGCA | 0.0998 |
| AAATGATA | 0.104 |
| ATGTAAAT | 0.0103 |
| GACAACCC | -0.174 |
| GACTTTCA | 0.209 |
| ATACACGG | -0.129 |
| AGCGGATG | -0.0548 |
| GGGTTGAA | -0.0719 |
| ATCAGTCC | 0.0464 |
| CGCATACG | -0.206 |
| CCTTAAGG | 0.107 |
| ACCTGCGT | -0.162 |
| CGCTAGGA | 0.177 |
| GATGGGGA | -0.0916 |
| AACCACAT | 0.164 |
| GAAGTAGC | -0.168 |
| GGCCTTTA | -0.32 |
| GTGGCCAA | -0.219 |
| CAAAGCCG | -0.176 |
| GGGAATCA | 0.418 |
| ACAAAAGT | 0.131 |
| TAAAGGCA | -0.11 |
| AAGGGACG | -0.332 |
| CGAGTAGA | 0.0255 |

| Sequence | PBM E-score |
| --- | --- |
| ACTTGATG | 0.0408 |
| ACAAAATC | 0.044 |
| GCACATAA | -0.0575 |
| CAGCGCCG | -0.0963 |
| CCCCTTCG | -0.214 |
| CGGAGAAA | -0.0432 |
| CAGCAGAC | -0.0101 |
| CCAGGTAC | -0.061 |
| AACCTGCC | -0.127 |
| ACGTATCA | -0.0547 |
| CCGTGTCC | -0.159 |
| AACTAATA | 0.176 |
| CCAGGTAA | -0.119 |
| TAGAGTAA | 0.0416 |
| GTTGGCAA | -0.14 |
| AGATCAAG | 0.158 |
| AAGGTTCG | -0.237 |
| GCCTAACC | -0.0204 |
| TATGTGAA | -0.00112 |
| CAAAGTCC | -0.222 |
| ACAAGTAT | -0.0156 |
| AAGAGTGC | -0.146 |
| TCAAGGAA | 0.129 |
| TCCCGAAA | -0.119 |
| AATCGCCA | 0.0233 |

| Sequence | PBM E-score |
| --- | --- |
| AGTGGTAT | -0.0965 |
| ATGCTCCG | -0.333 |
| ACCACCCA | -0.141 |
| AGACTTAC | 0.181 |
| AATTTGGT | -0.0209 |
| ACAGGTAA | 0.00368 |
| AATGGATG | -0.123 |
| AATGTTTC | -0.129 |
| ACACAACA | -0.0117 |
| GTTCTGGA | -0.0692 |
| GTGGGGGA | -0.216 |
| GATATAAC | -0.0513 |
| CTTCCCAA | -0.0465 |
| ATCACCCG | 0.158 |
| CGATTGGC | -0.078 |
| CTCCAGCC | -0.294 |
| CTCGTCCC | -0.159 |
| ACCTTTCG | -0.196 |
| ATTATTTG | 0.143 |
| GGCGAGTA | 0.133 |
| GAGGCTGA | 0.106 |
| ATATCTCA | 0.0798 |
| ACCCACGA | 0.116 |
| GAGTCCGA | 0.359 |
| GCCTAAGA | -0.158 |

| Sequence | PBM E-score |
| --- | --- |
| GTGACTAA | 0.488 |
| TACGAGTA | 0.212 |
| TCTCCTCA | 0.0382 |
| CCGAGGTC | -0.0793 |
| AAGTAAGC | -0.0828 |
| ATCCTTAA | 0.0511 |
| GGAGTCTA | 0.172 |
| TTGACCAA | 0.0296 |
| ACAACCTA | -0.0701 |
| ACATGGCC | -0.199 |
| ATAAACTA | 0.0484 |
| CGAAGGAG | -0.0979 |
| ACGAGTCG | 0.383 |
| CGTAACAA | -0.171 |
| TACATCTA | -0.123 |
| ACGTCCGC | -0.236 |
| ACTCGAAA | 0.113 |
| GAGAGACC | -0.193 |
| ACAACCGT | -0.181 |
| GTCTCTGA | 0.154 |
| AATGTCAC | -0.0216 |
| CGCTTTAA | -0.137 |

— the supplement of paper PMC3334620
